Measured values as given in the supplement of paper PMC10338343.
± gives the standard deviation. Only a part is listed here, and it is no random draw.

These sequences were tested on MIWI (PIWIL1) piRISC loaded with piRNA #1 (30 nt) (assay: pre-steady-state target cleavage rate (min^-1); MIWI and MILI are mouse PIWI proteins and EfPiwi is from a freshwater sponge; tags in brackets are library labels; higher = faster piRNA-guided slicing of the target). Details: guide: piRNA #1 5'p-UGAGGUAGUAGGUUGUAUAGUAUCCAGAGG; auxiliary factor: 500 nM mouse GTSF1.
Outline: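 Cleave-'n-Seq reactions paired 0.1 nM transcribed, DNA-blocked target RNA library with 1 nM active affinity-purified piRISC holding one synthetic guide, plus or minus 500 nM GTSF1 partner protein, in HEPES–potassium acetate buffer at 33 °C for 0–8 or 0–960 min. After sequencing of uncleaved targets and normalisation to depth and weakly complementary targets, the pre-steady-state cleavage rate was taken from a burst-and-steady-state fit. Three trials were pooled, and k3 was capped at 0.0001 min^-1.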

Sequence	pre-steady-state target cleavage rate
GGUCUCCUUACUAUACAACCUACUACCUCA	1.66 ± 0.095
GGUCUGGAUAAUAUACAACCUACUACCUCA	1.88 ± 0.12
GGUCUGGAUACUAUACACCCUACUACCUCA	1.83 ± 0.096
GGAGUCGAUACUAUACAACCAACUACCUCA	0.115 ± 0.01
GGAGAGGAAACUAUUCAACCUACUACCUCA	1.11 ± 0.076
GGAGACGUUACUUUACAACCUACUACCUCA	1.01 ± 0.1
CCUCUGGAUACUAUACAACCUACAUACCUCA	1.91 ± 0.13
CCUCUGGAUACUCUACAACCUACUACCUCA	1.84 ± 0.099
GGAGUGGAUACUAUACAUCCUACAACCUCA	0.674 ± 0.061
GGAGACCUAUGAUAUGUUCCUACUAUCCUCA	< 0.0001
GGAGUGGAUACUAUACAACCUACUGCCUCA	0.869 ± 0.085
GGAGAGGAUACUAUACAACCUACAACCUCA	0.624 ± 0.047
GGAGACCUAUCUAUACAACCUACUACCACA	0.868 ± 0.082
GGAGACCAUACUACUACAACCUACUACCUCA	0.705 ± 0.067
GGAGACCUUACUAAACAACCUACUAGCUCA	0.301 ± 0.043
GGACUGGAAACUAUACAACCUACUACCACA	0.408 ± 0.044
GCUCUGGAUACUAUACAACCUACUACCCUCA	1.32 ± 0.086
GGAGACCUAUGAUAACAACCUACACCUCA	< 0.0001
GGUCUGGAAACUAUACAACGUACUACCUCA	1.06 ± 0.071
GGAGACGAUACUAUACAUCCAACUACCUCA	0.0968 ± 0.012

Sequence	pre-steady-state target cleavage rate
CCUCUGGAUUCUAUACUACCUACUACCUCA	1.06 ± 0.062
GGUCAGGAUACUAUACAACCUACUACCACA	1.33 ± 0.11
GGAGACCAUACUAUACAACCUACUAGCUGA	0.0865 ± 0.023
GGACUGGAUACAAUACAUCCUACUACCUCA	1.15 ± 0.093
GGAGACCAUACUAUACAUCCUACUAGCUCA	0.483 ± 0.039
GGAGACCUAACUAUUCAACCUACUUCCUCA	0.0693 ± 0.027
GCUCUGGAUAGUAUACAACCUACAACCUCA	0.776 ± 0.05
CCUCUGGAUACUAUACUACCUACUACCUGA	0.9 ± 0.088
GGAGACCUAUCUAUACAACGUACAACCUCA	0.00585 ± 0.0031
GGAGACGUUUCUAUACAACCUACUACCUCA	1.18 ± 0.11
GGUCAGGAUACUAUACAACCUACUACGUCA	0.512 ± 0.053
CCUCUGGAUACUAUACAAGCUACUAGCUCA	0.751 ± 0.081
GGACUGGAUAGUAUACAACCUACUACCACA	0.264 ± 0.036
GGAGACCAUACAAUACAACCAACUACCUCA	0.0235 ± 0.0072
GGAGACCAUACUAUUACAACCUACUACCUCA	1.19 ± 0.1
GGAGAGGAUACUUUACAAGCUACUACCUCA	0.429 ± 0.033
CCUCUGGAUACUAUACAACCUACCACCUCA	0.818 ± 0.071
GCUCUGGAAACUAUACAACCUACUACGUCA	0.782 ± 0.077
GGUGUGGAUACUAUACAACCUAGUACCUCA	0.393 ± 0.051
GGAGAGGUUACUAUACAACCUACUACCUGA	0.108 ± 0.019
